According to the supplement of paper PMC12217912:
Some of the results follow. The full chains were built here from the parent and the listed change. Inactive controls read about 0.05.

B1: TEV protease; numbered along this chain (parent)
chain: MGESLFKGPRDYNPISSSICHLTNESDGHTTSLYGIGFGPFIITNKHLFRRNNGTLVVQSLHGVFKVKDTTTLQQHLVDGRDMIIIRMPKDFPPFPQKLKFREPQREERICLVTTNFQTKSMSSMVSDTSCTFPSGDGIFWKHWIQTKDGQCGSPLVSTRDGFIVGIHSASNFTNTNNYFTSVPKNFMELLTNQEAQQWVSGWRLNADSVLWGGHKVFMVKPEEPFQPVKEATQL

Variants of: B1
Assay: raw area under fraction-flipped curve 0-4 h after induction (AUC4h, not background-subtracted), DNA-recorder readout of cleavage of the substrate (dimensionless); higher = more cleavage of the substrate by the protease variant
Settings: temperature: 34 °C; time window: 0-4 h after rhamnose induction
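Further: Bxb1 expression induced with 0.2% (w/v) L-rhamnose at OD600 near 0.5, cultures sampled hourly, flipped fraction per protease–substrate barcode pair counted by paired-end Illumina sequencing.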

Row | Variant | area with substrate ENLYFQC | area with substrate ENLYFQE | area with substrate ENLYFQG | area with substrate ENLYFQK | area with substrate ENLYFQL | area with substrate ENLYFQM | area with substrate ENLYFQN | area with substrate ENLYFQP | area with substrate ENLYFQR | area with substrate ENLYFQS | area with substrate ENLYFQT | area with substrate ENLYFQW | area with substrate ENLYFQY | area with substrate ENLYFQD | area with substrate ENLYFQF | area with substrate ENLYFQH | area with substrate ENLYFQI | area with substrate ENLYFQV | area with substrate ENLYFQQ
1 | S154K | 0.089 | 0.0311 | 0.0955 | 0.0758 | 0.043 | 0.0656 | 0.0747 | 0.0467 | 0.0616 | 0.0892 | 0.0432 | 0.0669 | 0.0799 |  |  |  |  |  | 
2 | E103R | 0.0939 |  |  | 0.0673 | 0.0604 | 0.0792 | 0.0668 |  | 0.0578 | 0.0938 | 0.0368 | 0.0625 | 0.064 | 0.0545 | 0.0753 | 0.0665 | 0.0498 | 0.0658 | 
3 | T30E | 0.0909 |  | 0.0946 | 0.0614 | 0.0594 | 0.0702 | 0.0815 | 0.0561 | 0.0702 | 0.0971 | 0.0631 | 0.0762 |  | 0.0678 | 0.0962 |  |  | 0.076 | 
4 | K66N | 0.0907 |  | 0.09 |  |  |  | 0.0935 |  | 0.0683 | 0.0973 |  |  |  | 0.0693 |  | 0.0776 | 0.0627 |  | 0.09
5 | Y34S | 0.0716 |  |  | 0.0617 | 0.0549 | 0.0832 |  |  |  | 0.0949 | 0.0518 |  |  |  | 0.0491 |  | 0.0562 |  | 
6 | L5W | 0.136 |  |  | 0.0638 | 0.0598 | 0.116 |  |  | 0.0674 | 0.119 | 0.0651 | 0.0637 | 0.0758 |  |  |  | 0.0511 | 0.0579 | 
7 | F65H | 0.113 |  |  | 0.0742 | 0.0864 | 0.0932 | 0.0823 |  | 0.0816 | 0.102 | 0.07 | 0.0597 | 0.0533 | 0.06 | 0.0724 | 0.102 | 0.0551 |  | 0.0534
8 | Q74A | 0.118 |  | 0.0788 | 0.108 |  | 0.0798 | 0.0836 | 0.0547 | 0.0501 | 0.0975 | 0.0578 |  |  |  | 0.0824 | 0.068 | 0.0659 |  | 
9 | F6P | 0.096 | 0.068 |  |  |  | 0.0691 |  |  | 0.0457 | 0.0898 |  | 0.0621 |  |  |  | 0.0656 |  | 0.0798 | 
10 | M219N | 0.0803 | 0.0596 |  |  |  |  | 0.0634 |  | 0.0785 | 0.0975 |  | 0.0512 |  |  |  |  | 0.0602 | 0.0785 | 0.0533
11 | T70K | 0.0585 |  |  |  |  | 0.0385 | 0.0677 |  |  | 0.0672 | 0.0615 | 0.0589 |  |  |  |  |  | 0.0413 | 0.0283
12 | N177D | 0.0647 |  | 0.0903 | 0.0411 | 0.0579 |  |  | 0.0588 | 0.0525 | 0.0898 | 0.0563 |  |  | 0.0805 | 0.0712 | 0.0724 | 0.0671 |  | 0.0745
13 | K68G | 0.0907 |  |  | 0.0659 | 0.056 | 0.0818 | 0.0741 |  | 0.0607 | 0.0973 |  |  |  |  |  |  | 0.0651 | 0.0602 | 
14 | R10Y | 0.068 | 0.0681 | 0.0752 | 0.0653 | 0.0514 | 0.0969 | 0.0681 |  | 0.07 | 0.0821 | 0.0608 | 0.0585 | 0.0715 | 0.0608 |  | 0.0615 |  |  | 
15 | P134N | 0.0982 |  | 0.081 |  | 0.0489 | 0.0747 | 0.0583 | 0.0656 | 0.0541 | 0.0914 | 0.0421 | 0.0507 | 0.0915 | 0.0595 |  | 0.0758 | 0.0428 | 0.0592 | 
